From patent publication US20250333445A1 (ONCOPEPTIDES INNOVATION 1, published 2025)

How the values were obtained:
[1] = target: T1, hCD16a V158 (Cat. no. CD8-H52H4, Acro Biosystems) (human, UniProt P08637 17-208); experiment: SPR, 1-E6-(GGGSG)3-A10*-YY-His6 fusion over immobilised receptor [c]
T1 construct: also called human CD16a V158; hCD16a V158 allotype

[2] = target: T2, hCD16a F158 (Cat. no. CDA-H5220, Acro Biosystems) (human, UniProt P08637 17-208); experiment: as above
T2 construct: also called human CD16a F158; hCD16a F158 allotype

CD16b NA2 [3] = target: T3, CD16b NA2 (human, UniProt O75015); experiment: SPR, 1-E6-(GGGSG)3-A10*-YY-His6 fusion; CD16b set-up not described [c]
T3 construct: also called CD16b (NA2 form)

CD16b NA1 [4] = target: T4, CD16b NA1 (human, UniProt O75015); experiment: as above
T4 construct: also called CD16b (NA1 form)

[5] = target: T2, hCD16a F158 (Cat. no. CDA-H5220, Acro …); experiment: SPR, 1-E6-(GGGSG)3-A10*-YY-His6 fusion over immobilised receptor [f]
CD16b NA2 [6] = target: T3, CD16b NA2; experiment: SPR, 1-E6-(GGGSG)3-A10*-YY-His6 fusion; CD16b set-up not described [f]
CD16b NA1 [7] = target: T4, CD16b NA1; experiment: as above

| Kd [1] [nM] | Kd [2] [nM] | Kd (CD16b NA2 [3]) [nM] | Kd (CD16b NA1 [4]) [nM] | koff [2] [s⁻¹] | kon [2] [M⁻¹ s⁻¹] | Kd [5] [nM] | Kd (CD16b NA2 [6]) [nM] | Kd (CD16b NA1 [7]) [nM] | Binder |
| --- | --- | --- | --- | --- | --- | --- | --- | --- | --- |
| 258 | 297 | 374 | 114 | 23 | 7.9e+07 | – | – | – | 1-E6-(GGGSG)3-A10*-YY-His6 with A10* = SEQ ID 14 (designed binder) VDNKFNKENQFADEEIAALPNLNFYQKWAFIRKLMDDPSQSANLLAEAKKLNDAQAPKGGGSGGGGSGGGGSGVDNKFNKEFQLAQREIRELPNLNHHQQFAFIHKLLDDPSQSANLLAEAKKLNDAQAPKYYHHHHHH |
| – | – | – | – | – | – | 262 | 296 | 91 | 1-E6-(GGGSG)3-A10*-YY-His6 with A10* = SEQ ID 60 (designed binder) VDNKFNKENQFADEEIAALPNLNFYQKWAFIRKLMDDPSQSANLLAEAKKLNDAQAPKGGGSGGGGSGGGGSGVDNKFNKEVQHAQKEIRALPNLNHHQAFAFIAKLLDDPSQSANLLAEAKKLNDAQAPKYYHHHHHH |
| – | – | 286 | 51 | – | – | – | – | – | H_aBCMA-1-E6_15 aa_aCD16-A10(2a-F09)_His6c_OH (designed binder) VDNKFNKENQFADEEIAALPNLNFYQKWAFIRKLMDDPSQSANLLAEAKKLNDAQAPKGGGSGGGGSGGGGSGVDNKFNKEVQYAQREIRNLPNLNHHQAFAFIKSLIDDPSQSANLLAEAKKLNDAQAPKYYHHHHHH |
| 114 | 124 | 169 | 41 | 0.019 | 160000 | – | – | – | 1-E6-(GGGSG)3-A10*-YY-His6 with A10* = SEQ ID 24 (designed binder) VDNKFNKENQFADEEIAALPNLNFYQKWAFIRKLMDDPSQSANLLAEAKKLNDAQAPKGGGSGGGGSGGGGSGVDNKFNKEVQFAQREIRKLPNLNHHQQFAFIHSLLDDPSQSANLLAEAKKLNDAQAPKYYHHHHHH |
| – | – | 1140 | 209 | – | – | – | – | – | 1-E6-(GGGSG)3-A10*-YY-His6 with A10* = SEQ ID 23 (designed binder) VDNKFNKENQFADEEIAALPNLNFYQKWAFIRKLMDDPSQSANLLAEAKKLNDAQAPKGGGSGGGGSGGGGSGVDNKFNKELQHAQIEIRKLPNLNHHQKFAFINKLHDDPSQSANLLAEAKKLNDAQAPKYYHHHHHH |
| – | – | – | – | – | – | – | 142 | 39 | 1-E6-(GGGSG)3-A10*-YY-His6 with A10* = SEQ ID 55 (designed binder) VDNKFNKENQFADEEIAALPNLNFYQKWAFIRKLMDDPSQSANLLAEAKKLNDAQAPKGGGSGGGGSGGGGSGVDNKFNKELQKAQQEIRHLPNLNHHQTFAFIKKLLDDPSQSANLLAEAKKLNDAQAPKYYHHHHHH |
| – | – | 85 | 12 | – | – | – | – | – | H_aBCMA-1-E6_15 aa_aCD16-A10(2b-E03)_His6c_OH (designed binder) VDNKFNKENQFADEEIAALPNLNFYQKWAFIRKLMDDPSQSANLLAEAKKLNDAQAPKGGGSGGGGSGGGGSGVDNKFNKELQSAQREIRQLPNLNHHQKFAFINSLLDDPSQSANLLAEAKKLNDAQAPK |
| – | – | – | – | – | – | – | 224 | 39 | H_aBCMA-1-E6_15 aa_aCD16-A10(34a-F03)_His6c_OH (designed binder) VDNKFNKENQFADEEIAALPNLNFYQKWAFIRKLMDDPSQSANLLAEAKKLNDAQAPKGGGSGGGGSGGGGSGVDNKFNKEVQIAQLEIRRLPNLNHHQKYAFIKSLADDPSQSANLLAEAKKLNDAQAPK |

Continued, binder first:

| Binder | Kd [1] [nM] | Kd [2] [nM] | Kd (CD16b NA2 [3]) [nM] | Kd (CD16b NA1 [4]) [nM] | koff [2] [s⁻¹] | kon [2] [M⁻¹ s⁻¹] | Kd [5] [nM] | Kd (CD16b NA2 [6]) [nM] | Kd (CD16b NA1 [7]) [nM] |
| --- | --- | --- | --- | --- | --- | --- | --- | --- | --- |
| 1-E6-(GGGSG)3-A10*-YY-His6 with A10* = SEQ ID 13 (designed binder) VDNKFNKENQFADEEIAALPNLNFYQKWAFIRKLMDDPSQSANLLAEAKKLNDAQAPKGGGSGGGGSGGGGSGVDNKFNKELQTAQLEIRTLPNLNHHQIFAFIAKLRDDPSQSANLLAEAKKLNDAQAPKYYHHHHHH | 256 | 282 | 692 | 195 | – | – | – | – | – |
| 1-E6-(GGGSG)3-A10*-YY-His6 with A10* = SEQ ID 22 (designed binder) VDNKFNKENQFADEEIAALPNLNFYQKWAFIRKLMDDPSQSANLLAEAKKLNDAQAPKGGGSGGGGSGGGGSGVDNKFNKEIQSAQVEIRALPNLNHHQKFAFINSLLDDPSQSANLLAEAKKLNDAQAPKYYHHHHHH | 256 | 283 | 362 | 143 | 2.7 | 9.4e+06 | – | – | – |
| 1-E6-(GGGSG)3-A10*-YY-His6 with A10* = SEQ ID 31 (designed binder) VDNKFNKENQFADEEIAALPNLNFYQKWAFIRKLMDDPSQSANLLAEAKKLNDAQAPKGGGSGGGGSGGGGSGVDNKFNKERQQAAYEIRHLPNLNHHQVFAFIKKLLDDPSQSANLLAEAKKLNDAQAPKYYHHHHHH | – | 182 | 270 | 160 | – | – | – | – | – |
| 1-E6-(GGGSG)3-A10*-YY-His6 with A10* = SEQ ID 30 (designed binder) VDNKFNKENQFADEEIAALPNLNFYQKWAFIRKLMDDPSQSANLLAEAKKLNDAQAPKGGGSGGGGSGGGGSGVDNKFNKEKQRAQWEIRQLPNLNHHQKFAFIQSLIDDPSQSANLLAEAKKLNDAQAPKYYHHHHHH | 79 | – | 176 | 102 | – | – | – | – | – |
| 1-E6-(GGGSG)3-A10*-YY-His6 with A10* = SEQ ID 32 (designed binder) VDNKFNKENQFADEEIAALPNLNFYQKWAFIRKLMDDPSQSANLLAEAKKLNDAQAPKGGGSGGGGSGGGGSGVDNKFNKEKQAAQREIRALPNLNHHQIFAFIHKLLDDPSQSANLLAEAKKLNDAQAPKYYHHHHHH | 129 | – | 193 | 59 | – | – | – | – | – |
| 1-E6-(GGGSG)3-A10*-YY-His6 with A10* = SEQ ID 48 (designed binder) VDNKFNKENQFADEEIAALPNLNFYQKWAFIRKLMDDPSQSANLLAEAKKLNDAQAPKGGGSGGGGSGGGGSGVDNKFNKEQQYAQIEIRQLPNLNHHQKFAFIKSLIDDPSQSANLLAEAKKLNDAQAPKYYHHHHHH | – | – | – | – | – | – | 227 | 360 | 96 |
| H_aBCMA-1-E6_15 aa_aCD16-A10(2a-H04)_His6c_OH (designed binder) VDNKFNKENQFADEEIAALPNLNFYQKWAFIRKLMDDPSQSANLLAEAKKLNDAQAPKGGGSGGGGSGGGGSGVDNKFNKEVQWAQKEIRSLPNLNHHQVFAFIRSLLDDPSQSANLLAEAKKLNDAQAPKYYHHHHHH | – | – | 96 | 24 | – | – | – | – | – |
| 1-E6-(GGGSG)3-A10*-YY-His6 with A10* = SEQ ID 20 (designed binder) VDNKFNKENQFADEEIAALPNLNFYQKWAFIRKLMDDPSQSANLLAEAKKLNDAQAPKGGGSGGGGSGGGGSGVDNKFNKERQYAVNEIRQLPNLNHHQIFAFIKSLLDDPSQSANLLAEAKKLNDAQAPKYYHHHHHH | 502 | 605 | 676 | 369 | 0.14 | 240000 | – | – | – |
| 1-E6-(GGGSG)3-A10*-YY-His6 with A10* = SEQ ID 56 (designed binder) VDNKFNKENQFADEEIAALPNLNFYQKWAFIRKLMDDPSQSANLLAEAKKLNDAQAPKGGGSGGGGSGGGGSGVDNKFNKEHQVAQREIRALPNLNHHQKFAFIQSLIDDPSQSANLLAEAKKLNDAQAPKYYHHHHHH | – | – | – | – | – | – | 186 | 257 | 45 |
| 1-E6-(GGGSG)3-A10*-YY-His6 with A10* = SEQ ID 27 (designed binder) VDNKFNKENQFADEEIAALPNLNFYQKWAFIRKLMDDPSQSANLLAEAKKLNDAQAPKGGGSGGGGSGGGGSGVDNKFNKELQHAQREIRQLPNLNHHQVFAFIASLIDDPSQSANLLAEAKKLNDAQAPKYYHHHHHH | 173 | 532 | 274 | 66 | 18 | 3.4e+07 | – | – | – |
| 1-E6-(GGGSG)3-A10*-YY-His6 with A10* = SEQ ID 28 (designed binder) VDNKFNKENQFADEEIAALPNLNFYQKWAFIRKLMDDPSQSANLLAEAKKLNDAQAPKGGGSGGGGSGGGGSGVDNKFNKEIQDAQKEIRTLPNLNHHQKFAFIQSLIDDPSQSANLLAEAKKLNDAQAPKYYHHHHHH | 148 | 124 | 238 | 48 | 0.019 | 160000 | – | – | – |
